# Assay results from the supplement of paper PMC8728848.
# Some of the results follow.
# Tests used:
# Test in all cases: glycan array binding signal (z-score within array); higher = stronger binding
# Details in all cases: glycan notation: IUPAC condensed, linker removed
# [1] = molecular target: GalNAc(b1-6)GalNAc
# In short: (§1)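 The binding signal is a Z-score computed within each array and averaged over linkers. Arrays of the same protein sequence at different concentrations or buffers were also averaged together. Data originate from 3228 arrays in the Consortium for Functional Glycomics database, kept only where the protein sequence was available.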
# [2] = molecular target: Glc(a1-4)Glc
# In short: as §1
# [3] = molecular target: Glc(a1-4)Glc(a1-4)Glc(a1-4)Glc
# In short: as §1
# [4] = molecular target: Glc(a1-6)Glc(a1-6)Glc
# In short: as §1
# [5] = molecular target: Glc(a1-6)Glc(a1-6)Glc(a1-6)Glc
# In short: as §1
# [6] = molecular target: Glc(b1-4)Glc
# In short: as §1
# [7] = molecular target: Glc(b1-6)Glc
# In short: as §1
# [8] = molecular target: GlcA(b1-3)Gal
# In short: as §1
# [9] = molecular target: GlcA(b1-3)GlcNAc
# In short: as §1
# [10] = molecular target: GlcA(b1-6)Gal
# In short: as §1
# [11] = molecular target: GlcNAc(a1-3)Gal(b1-4)GlcNAc
# In short: as §1
# [12] = molecular target: GlcNAc(a1-4)Gal(b1-3)GlcNAc
# In short: as §1
# [13] = molecular target: GlcNAc(a1-4)Gal(b1-4)GalNAc
# In short: as §1
# [14] = molecular target: GlcNAc(a1-4)Gal(b1-4)GlcNAc
# In short: as §1
# [15] = molecular target: GlcNAc(a1-4)Gal(b1-4)GlcNAc(b1-3)Gal(b1-4)Glc
# In short: as §1
# [16] = molecular target: GlcNAc(a1-4)Gal(b1-4)GlcNAc(b1-3)Gal(b1-4)GlcNAc
# In short: as §1
# [17] = molecular target: GlcNAc(a1-4)Gal(b1-4)GlcNAc(b1-3)Gal(b1-4)GlcNAc(b1-3)Gal(b1-4)GlcNAc
# In short: as §1
# [18] = molecular target: GlcNAc(a1-4)Gal(b1-4)GlcNAc(b1-3)Gal(b1-4)[Fuc(a1-3)]GlcNAc(b1-3)Gal(b1-4)[Fuc(a1-3)]GlcNAc
# In short: as §1
# [19] = molecular target: GlcNAc(a1-6)Gal(b1-4)GlcNAc
# In short: as §1
# [20] = molecular target: GlcNAc(b1-2)Gal(b1-3)GalNAc
# In short: as §1
# [21] = molecular target: GlcNAc(b1-2)Man(a1-3)[GlcNAc(b1-2)Man(a1-6)]Man(b1-4)GlcNAc(b1-4)GlcNAc
# In short: as §1
# [22] = molecular target: GlcNAc(b1-2)Man(a1-3)[GlcNAc(b1-2)Man(a1-6)]Man(b1-4)GlcNAc(b1-4)[Fuc(a1-6)]GlcNAc
# In short: as §1
# [23] = molecular target: GlcNAc(b1-2)Man(a1-3)[GlcNAc(b1-4)][GlcNAc(b1-2)Man(a1-6)]Man(b1-4)GlcNAc(b1-4)GlcNAc
# In short: as §1
# [24] = molecular target: GlcNAc(b1-2)[GlcNAc(b1-4)]Man(a1-3)[GlcNAc(b1-2)Man(a1-6)]Man(b1-4)GlcNAc(b1-4)GlcNAc
# In short: as §1
# [25] = molecular target: GlcNAc(b1-2)[GlcNAc(b1-4)]Man(a1-3)[GlcNAc(b1-4)][GlcNAc(b1-2)Man(a1-6)]Man(b1-4)GlcNAc(b1-4)GlcNAc
# In short: as §1
# [26] = molecular target: GlcNAc(b1-2)[GlcNAc(b1-4)]Man(a1-3)[GlcNAc(b1-4)][GlcNAc(b1-2)[GlcNAc(b1-6)]Man(a1-6)]Man(b1-4)GlcNAc(b1-4)GlcNAc
# In short: as §1
# [27] = molecular target: GlcNAc(b1-2)[GlcNAc(b1-6)]Man(a1-6)[GlcNAc(b1-2)Man(a1-3)]Man(b1-4)GlcNAc(b1-4)GlcNAc
# In short: as §1
# [28] = molecular target: GlcNAc(b1-2)[GlcNAc(b1-6)]Man(a1-6)[GlcNAc(b1-2)Man(a1-3)][GlcNAc(b1-4)]Man(b1-4)GlcNAc(b1-4)GlcNAc
# In short: as §1
# [29] = molecular target: GlcNAc(b1-3)Gal
# In short: as §1
# [30] = molecular target: GlcNAc(b1-3)Gal(b1-3)GalNAc
# In short: as §1
# [31] = molecular target: GlcNAc(b1-3)Gal(b1-4)Glc
# In short: as §1
# [32] = molecular target: GlcNAc(b1-3)Gal(b1-4)GlcNAc
# In short: as §1
# [33] = molecular target: GlcNAc(b1-3)Gal(b1-4)GlcNAc(b1-3)Gal(b1-4)GlcNAc
# In short: as §1
# [34] = molecular target: GlcNAc(b1-3)GalNAc
# In short: as §1
# [35] = molecular target: GlcNAc(b1-3)Man
# In short: as §1
# [36] = molecular target: GlcNAc(b1-3)[GlcNAc(b1-4)][GlcNAc(b1-6)]GlcNAc
# In short: as §1
# [37] = molecular target: GlcNAc(b1-3)[GlcNAc(b1-6)]Gal(b1-4)GlcNAc
# In short: as §1
binder,measurement,setting,value
Gal 9 (Canis lupus) (protein) MAFSSSQPPYLSPGVPFSGKIQGGLQDGLKITINGTILYCNGTRFAVNFHSGHSDSDIAFHFNPRFEEGGYVVCNTKQKGSWGSEERKMQMPFQMGNPFELCFMVNSCDFKVTVNGSHFTQYSHRVPFHYVDTLSITGAVQLSYISFQSPGVWQSSSAPITQTVIHTVQTTPGQPFPNPIIPPTAYPTPTYPMPFFTSIPGGLYPSKSIIVSGTVLPGAKRFHINLRSGNDIAFHLNPRFNENTVVRNMQINNSWGSEERSLPRKMPFVQGQSFSVWIMCEGHCFKVAVDGEHLFEYYHRLKNLLAINNMEVAGDVQLTHVQT,glycan array binding signal (z-score),[1],-0.309
same,glycan array binding signal (z-score),[2],-0.327
same,glycan array binding signal (z-score),[3],-0.332
same,glycan array binding signal (z-score),[4],-0.357
same,glycan array binding signal (z-score),[5],-0.32
same,glycan array binding signal (z-score),[6],-0.311
same,glycan array binding signal (z-score),[7],-0.341
same,glycan array binding signal (z-score),[8],-0.332
same,glycan array binding signal (z-score),[9],-0.341
same,glycan array binding signal (z-score),[10],-0.32
same,glycan array binding signal (z-score),[11],-0.032
same,glycan array binding signal (z-score),[12],-0.325
same,glycan array binding signal (z-score),[13],-0.304
same,glycan array binding signal (z-score),[14],-0.312
same,glycan array binding signal (z-score),[15],0.304
same,glycan array binding signal (z-score),[16],0.064
same,glycan array binding signal (z-score),[17],0.084
same,glycan array binding signal (z-score),[18],-0.287
same,glycan array binding signal (z-score),[19],-0.354
same,glycan array binding signal (z-score),[20],-0.336
same,glycan array binding signal (z-score),[21],-0.332
same,glycan array binding signal (z-score),[22],-0.293
same,glycan array binding signal (z-score),[23],-0.354
same,glycan array binding signal (z-score),[24],-0.34
same,glycan array binding signal (z-score),[25],-0.349
same,glycan array binding signal (z-score),[26],-0.328
same,glycan array binding signal (z-score),[27],-0.328
same,glycan array binding signal (z-score),[28],-0.338
same,glycan array binding signal (z-score),[29],-0.357
same,glycan array binding signal (z-score),[30],0.492
same,glycan array binding signal (z-score),[31],0.093
same,glycan array binding signal (z-score),[32],0.268
same,glycan array binding signal (z-score),[33],0.248
same,glycan array binding signal (z-score),[34],-0.352
same,glycan array binding signal (z-score),[35],-0.347
same,glycan array binding signal (z-score),[36],-0.337
same,glycan array binding signal (z-score),[37],-0.356
